Laboratory results taken from ChEMBL document CHEMBL5214994, “Discovery of Proline-Based p300/CBP Inhibitors Using DNA-Encoded Library Technology in Combination with High-Throughput Screening” (J Med Chem, 2022).
Activity calls are given as the source filed them. The rule behind the calls is not given here.

Tests used:
[1] = target: T1, CREB-binding protein/Histone acetyltransferase p300 (Homo sapiens, UniProt Q09472+Q92793); assay: Inhibition of CBP/p300 in human COLO 320HSR cells assessed as reduction of C-myc levels measured after 24 hrs by HTRF assay; type: cell-based
[2] = Lipophilicity, log D of the compound at pH 7.4 by chromatographic method; type: physicochemical; conditions: buffer
[3] = Cmax in male Wistar Han rat at 0.53 mg/kg, iv measured after 24 hrs by LC-MS/MS analysis; type: ADME, organism-based; design: time 24 hrs, dose 0.53 mg/kg, route iv; conditions: in vivo
[4] = AUC (0 to infinity) in male Wistar Han rat at 0.53 mg/kg, iv measured after 24 hrs by LC-MS/MS analysis; type: ADME, organism-based; design: dose 0.53 mg/kg, time 24 hrs, route iv; conditions: in vivo
[5] = Clearance in male Wistar Han rat at 0.53 mg/kg, iv measured after 24 hrs by LC-MS/MS analysis; type: ADME, organism-based; conditions: in vivo
[6] = Volume of distribution at steady state in male Wistar Han rat at 0.53 mg/kg, iv measured after 24 hrs by LC-MS/MS analysis; type: ADME, organism-based; conditions: in vivo, read-out: Vdss
[7] = Half-life in male Wistar Han rat at 0.53 mg/kg, iv measured after 24 hrs by LC-MS/MS analysis; type: ADME, organism-based; conditions: in vivo
[8] = Mean residence time in male Wistar Han rat at 0.53 mg/kg, iv measured after 24 hrs by LC-MS/MS analysis; type: ADME, organism-based; conditions: in vivo
[9] = Stability in male Wistar Han rat plasma assessed as compound remaining at 1 uM measured up to 4 hrs measured by LC-MS/MS analysis; type: ADME, cell-free; conditions: read-out: Stability
[10] = Cmax in male Wistar Han rat at 0.54 mg/kg, iv measured after 24 hrs by LC-MS/MS analysis; type: ADME, organism-based; design: time 24 hrs, dose 0.54 mg/kg, route iv; conditions: in vivo
[11] = AUC (0 to infinity) in male Wistar Han rat at 0.54 mg/kg, iv measured after 24 hrs by LC-MS/MS analysis; type: ADME, organism-based; design: time 24 hrs, dose 0.54 mg/kg, route iv; conditions: in vivo
[12] = Clearance in male Wistar Han rat at 0.54 mg/kg, iv measured after 24 hrs by LC-MS/MS analysis; type: ADME, organism-based; conditions: in vivo
[13] = Volume of distribution at steady state in male Wistar Han rat at 0.54 mg/kg, iv measured after 24 hrs by LC-MS/MS analysis; type: ADME, organism-based; conditions: in vivo, read-out: Vdss
[14] = Half-life in male Wistar Han rat at 0.54 mg/kg, iv measured after 24 hrs by LC-MS/MS analysis; type: ADME, organism-based; conditions: in vivo
[15] = Mean residence time in male Wistar Han rat at 0.54 mg/kg, iv measured after 24 hrs by LC-MS/MS analysis; type: ADME, organism-based; conditions: in vivo
[16] = target: Histone acetyltransferase p300 (Homo sapiens, UniProt Q09472); assay: Inhibition of p300 (unknown origin) using Histone H3 substrate at 1 uM relative to control
[17] = target: CREB-binding protein (Homo sapiens) (UniProt Q92793); assay: Inhibition of CBP (unknown origin) using Histone H3 substrate at 1 uM relative to control
[18] = target: T1, CREB-binding protein/Histone acetyltransferase p300; assay: Inhibition of CBP/p300 in human COLO 320HSR cells assessed as decrease in H3K18 acetylation at 0.3 to 1000 nM measured by western blot analysis; type: cell-based; conditions: dose 0.3-1000 nM
[19] = target: T1, CREB-binding protein/Histone acetyltransferase p300; assay: Inhibition of CBP/p300 in human COLO 320HSR cells assessed as decrease in H3K27 acetylation at 0.3 to 1000 nM measured by western blot analysis; type: cell-based; conditions: dose 0.3-1000 nM
[20] = Half-life in male Wistar Han rat at 0.5 mg/kg, iv or 1 mg/kg, po measured after 24 hrs by LC-MS/MS analysis; type: ADME, organism-based; conditions: in vivo
[21] = Cmax in male Wistar Han rat at 0.6 mg/kg, iv measured after 24 hrs by LC-MS/MS analysis; type: ADME, organism-based; design: time 24 hrs, dose 0.6 mg/kg, route iv; conditions: in vivo
[22] = AUC (0 to infinity) in male Wistar Han rat at 0.6 mg/kg, iv measured after 24 hrs by LC-MS/MS analysis; type: ADME, organism-based; design: time 24 hrs, dose 0.6 mg/kg, route iv; conditions: in vivo
[23] = Clearance in male Wistar Han rat at 0.6 mg/kg, iv measured after 24 hrs by LC-MS/MS analysis; type: ADME, organism-based; conditions: in vivo
[24] = Volume of distribution at steady state in male Wistar Han rat at 0.6 mg/kg, iv measured after 24 hrs by LC-MS/MS analysis; type: ADME, organism-based; conditions: in vivo, read-out: Vdss
[25] = Half-life in male Wistar Han rat at 0.6 mg/kg, iv measured after 24 hrs by LC-MS/MS analysis; type: ADME, organism-based; conditions: in vivo
[26] = Mean residence time in male Wistar Han rat at 0.6 mg/kg, iv measured after 24 hrs by LC-MS/MS analysis; type: ADME, organism-based; conditions: in vivo

Sequence of UniProt Q92793 (Q92793 whole entry, looked up): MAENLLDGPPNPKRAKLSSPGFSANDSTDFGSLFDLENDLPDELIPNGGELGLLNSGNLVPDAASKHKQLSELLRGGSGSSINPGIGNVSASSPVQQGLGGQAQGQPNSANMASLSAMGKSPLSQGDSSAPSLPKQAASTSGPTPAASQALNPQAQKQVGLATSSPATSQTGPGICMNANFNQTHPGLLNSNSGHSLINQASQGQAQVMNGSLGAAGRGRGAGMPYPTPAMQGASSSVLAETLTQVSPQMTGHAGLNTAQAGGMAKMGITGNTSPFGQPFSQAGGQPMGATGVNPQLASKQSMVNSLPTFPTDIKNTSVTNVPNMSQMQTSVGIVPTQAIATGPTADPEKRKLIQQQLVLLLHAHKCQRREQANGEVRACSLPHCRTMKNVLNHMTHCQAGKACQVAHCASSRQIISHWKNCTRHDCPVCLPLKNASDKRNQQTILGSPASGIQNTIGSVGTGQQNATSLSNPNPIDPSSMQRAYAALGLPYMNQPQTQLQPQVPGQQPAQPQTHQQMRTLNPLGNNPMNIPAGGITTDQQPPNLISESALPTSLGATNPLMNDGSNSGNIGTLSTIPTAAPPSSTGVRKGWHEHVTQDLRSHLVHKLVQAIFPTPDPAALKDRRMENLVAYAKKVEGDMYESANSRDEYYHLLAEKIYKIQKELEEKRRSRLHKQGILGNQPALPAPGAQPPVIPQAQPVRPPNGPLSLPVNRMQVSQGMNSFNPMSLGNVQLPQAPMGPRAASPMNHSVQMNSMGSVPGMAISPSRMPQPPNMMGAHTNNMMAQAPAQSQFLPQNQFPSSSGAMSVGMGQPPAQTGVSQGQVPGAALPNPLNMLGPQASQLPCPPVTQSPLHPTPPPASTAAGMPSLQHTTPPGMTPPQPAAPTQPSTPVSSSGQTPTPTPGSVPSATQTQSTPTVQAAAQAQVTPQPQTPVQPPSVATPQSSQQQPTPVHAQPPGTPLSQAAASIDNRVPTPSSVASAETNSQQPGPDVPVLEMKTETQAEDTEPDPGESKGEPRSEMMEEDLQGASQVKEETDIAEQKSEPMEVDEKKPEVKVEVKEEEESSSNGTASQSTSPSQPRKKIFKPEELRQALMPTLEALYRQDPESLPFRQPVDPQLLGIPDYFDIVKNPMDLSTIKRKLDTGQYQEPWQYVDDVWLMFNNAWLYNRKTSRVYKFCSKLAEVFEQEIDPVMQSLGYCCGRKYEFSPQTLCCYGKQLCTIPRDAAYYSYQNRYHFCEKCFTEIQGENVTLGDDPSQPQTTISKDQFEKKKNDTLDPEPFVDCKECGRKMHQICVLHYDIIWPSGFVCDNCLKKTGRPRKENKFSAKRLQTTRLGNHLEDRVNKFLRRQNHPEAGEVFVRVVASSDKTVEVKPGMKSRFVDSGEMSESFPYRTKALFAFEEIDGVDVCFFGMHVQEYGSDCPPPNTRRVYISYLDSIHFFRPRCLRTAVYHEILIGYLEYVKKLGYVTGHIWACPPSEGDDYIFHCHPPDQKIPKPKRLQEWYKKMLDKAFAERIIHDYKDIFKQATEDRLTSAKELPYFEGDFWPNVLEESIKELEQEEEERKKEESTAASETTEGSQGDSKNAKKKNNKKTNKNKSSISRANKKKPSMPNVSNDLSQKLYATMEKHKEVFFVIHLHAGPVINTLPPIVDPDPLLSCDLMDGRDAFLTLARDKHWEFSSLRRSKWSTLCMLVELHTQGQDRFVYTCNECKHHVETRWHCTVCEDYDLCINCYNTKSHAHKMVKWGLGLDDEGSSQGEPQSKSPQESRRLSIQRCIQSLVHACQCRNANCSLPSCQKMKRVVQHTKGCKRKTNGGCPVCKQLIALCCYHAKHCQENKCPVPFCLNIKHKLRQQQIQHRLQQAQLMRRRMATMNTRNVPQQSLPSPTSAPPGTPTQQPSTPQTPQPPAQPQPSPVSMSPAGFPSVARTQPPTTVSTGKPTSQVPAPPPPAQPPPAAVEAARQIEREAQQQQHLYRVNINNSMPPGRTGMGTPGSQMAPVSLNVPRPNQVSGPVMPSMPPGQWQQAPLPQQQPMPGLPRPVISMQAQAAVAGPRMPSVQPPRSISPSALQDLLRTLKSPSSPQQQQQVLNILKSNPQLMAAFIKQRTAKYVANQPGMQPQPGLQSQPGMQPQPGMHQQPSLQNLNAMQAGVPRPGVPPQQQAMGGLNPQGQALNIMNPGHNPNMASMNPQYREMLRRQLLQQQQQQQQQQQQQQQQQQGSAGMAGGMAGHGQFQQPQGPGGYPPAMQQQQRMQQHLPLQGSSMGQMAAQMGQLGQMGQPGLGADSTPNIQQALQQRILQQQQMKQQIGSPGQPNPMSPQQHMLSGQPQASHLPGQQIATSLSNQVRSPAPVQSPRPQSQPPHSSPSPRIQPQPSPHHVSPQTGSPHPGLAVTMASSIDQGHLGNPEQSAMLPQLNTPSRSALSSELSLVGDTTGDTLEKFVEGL

| SMILES | pEC50 [1] | chromatographic logD [2] | also measured |
| --- | --- | --- | --- |
| O=C1Cc2cc(NC(=O)[C@H]3CCCN3C(=O)C3(c4cccc(Cl)c4)CCCC3)ccc2N1 | 6.3 | 5 | – |
| O=C(Nc1ccc2[nH]ncc2n1)[C@H]1CCCN1C(=O)C1(c2ccc(F)cc2)CCC1 | 7 | 4.1 | – |
| O=C(Nc1ccc2[nH]nnc2c1)[C@H]1CCCN1C(=O)C1(c2cccc(Cl)c2)CCCC1 | 5.4 | 5.2 | – |
| O=C(Nc1ccc2[nH]ncc2n1)[C@H]1CCCN1C(=O)C1(c2cccc(Cl)c2)CCCC1 | 7.9 | – | – |
| O=C(Nc1ccc2[nH]ncc2n1)[C@H]1C[C@@H](F)CN1C(=O)C1(c2ccc(Cl)cc2)CCC1 | 8.2 | 4.3 | Cmax [3]: 77 ng/mL; AUC(0-inf) [4]: 50 ng·h/mL; clearance [5]: 134 mL/min/kg; Vd [6]: 2.8 L/kg; half-life [7]: 21 min; MRT [8]: 21.6 min |
| O=C(Nc1ccc2[nH]c(=O)[nH]c2c1)[C@H]1CCCN1C(=O)C1(c2cccc(Cl)c2)CCCC1 | 6.5 | 4.4 | – |
| COc1ccc(NC(=O)[C@H]2CCCN2C(=O)C2(c3cccc(Cl)c3)CCCC2)cc1 | 4.7 | – | – |
| COc1ccc(NC(=O)[C@H]2CCN2C(=O)C2(c3ccc(Cl)cc3)CCCC2)cc1 | 5.3 | – | – |
| COc1ccc(NC(=O)[C@H]2CCCN2C(=O)C2(c3cccc(Cl)c3)CCCC2)nc1 | 6.3 | 6.8 | – |
| COc1ccc(NC(=O)[C@H]2CCCCN2C(=O)C2(c3ccc(Cl)cc3)CCCC2)cc1 | 5.3 | – | – |
| COc1ccc(NC(=O)[C@H]2CCCN2C(=O)C(C)(C)c2ccc(Cl)cc2)cc1 | 5.1 | – | – |
| O=C(Nc1ccc2[nH]ccc2n1)[C@H]1CCCN1C(=O)C1(c2cccc(Cl)c2)CCCC1 | 7.3 | 5.9 | – |
| COc1ccc(NC(=O)[C@H]2CCCN2C(=O)C2(c3ccc(Cl)cc3)CCC2)cc1 | 5.7 | – | – |
| COc1ccc(NC(=O)[C@H]2CCCN2C(=O)C2(c3ccccc3)CCCC2)cc1 | 5.3 | – | – |
| O=C(Nc1ccc2[nH]ncc2n1)[C@H]1C[C@@H](F)CN1C(=O)C1(c2ccc(Cl)cc2)CC(F)(F)C1 | 8.5 | 4.4 | remaining at 4 h, 1 µM [9]: > 98%; Cmax [10]: 210 ng/mL; AUC(0-inf) [11]: 102 ng·h/mL; clearance [12]: 95 mL/min/kg; Vd [13]: 2 L/kg; half-life [14]: 18 min; MRT [15]: 22.2 min; inhibition [16]: 97%; inhibition [17]: 80%; inhibition [18]: Active; inhibition [19]: Active |
| O=C(Nc1ccc2[nH]ncc2n1)[C@H]1COCCN1C(=O)C1(c2ccc(Cl)cc2)CC(F)(F)C1 | 8.1 | 4.5 | half-life [20]: 35.4 min |
| CNC(=O)c1ccc(NC(=O)[C@H]2CCCN2C(=O)C2(c3cccc(Cl)c3)CCCC2)cc1 | 6.5 | 5.3 | – |
| O=C(Nc1ccc2[nH]ncc2n1)[C@H]1CCCN1C(=O)C1(c2ccc(Cl)cc2)CCC1 | 7.4 | 4.7 | – |
| COc1ccc(C2(C(=O)N3CCC[C@@H]3C(=O)Nc3ccc4[nH]ncc4n3)CCC2)cc1 | 7.1 | 3.9 | – |
| O=C(Nc1ccc2[nH]ncc2n1)[C@H]1CCCN1C(=O)C1(c2ccc(Cl)cc2)CC(F)(F)C1 | 7.8 | 4.7 | Cmax [21]: 89 ng/mL; AUC(0-inf) [22]: 70 ng·h/mL; clearance [23]: 150 mL/min/kg; Vd [24]: 4.3 L/kg; half-life [25]: 34.8 min; MRT [26]: 30 min |
| O=C(Nc1ccc(O)cc1)[C@H]1CCCN1C(=O)C1(c2cccc(Cl)c2)CCCC1 | 6.6 | 5.5 | – |
| O=C(Nc1cnc2[nH]ncc2c1)[C@H]1CCCN1C(=O)C1(c2cccc(Cl)c2)CCCC1 | 5.5 | 4.9 | – |
| N#Cc1ccc(C2(C(=O)N3CCC[C@@H]3C(=O)Nc3ccc4[nH]ncc4n3)CCC2)cc1 | 7.3 | 3.4 | Cmax [3]: 64 ng/mL; AUC(0-inf) [4]: 59 ng·h/mL; clearance [5]: 150 mL/min/kg; Vd [6]: 2.7 L/kg; half-life [7]: 19.8 min; MRT [8]: 18 min |
| COc1ccc(NC(=O)[C@H]2CCCN2C(=O)C2(c3ccc(Cl)cc3)CCCCC2)cc1 | 5.3 | – | – |
| COc1ccc(NC(=O)[C@H]2CCCN2C(=O)C2(c3ccc(Cl)cc3)CCCC2)cc1 | 5.7 | – | – |
| CNC(=O)c1cccc(NC(=O)[C@H]2CCCN2C(=O)C2(c3cccc(Cl)c3)CCCC2)c1 | < 4.3 | 5.5 | – |
| O=C(Nc1ccc2[nH]ncc2c1)[C@H]1CCCN1C(=O)C1(c2cccc(Cl)c2)CCCC1 | 6.7 | 5.4 | – |
